Here are results for 40 sequences from article PMC12820563.

The other results are listed elsewhere or left out. The list includes weakly bound sequences.

The target in this experiment is T1, MBP-FoxP3dN (UniProt Q99JB6).
T1 sequence: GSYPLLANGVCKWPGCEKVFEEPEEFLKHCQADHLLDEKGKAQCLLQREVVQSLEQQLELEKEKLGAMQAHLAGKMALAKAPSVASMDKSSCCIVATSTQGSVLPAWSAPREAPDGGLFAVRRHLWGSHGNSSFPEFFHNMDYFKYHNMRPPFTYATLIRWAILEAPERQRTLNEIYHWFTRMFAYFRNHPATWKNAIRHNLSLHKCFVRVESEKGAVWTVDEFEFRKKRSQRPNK
The experiment can be described thus: PD-seq (MBP pull-down with sequencing). Conditions: 20 mM Tris-HCl pH 7.5, 100 mM NaCl, 1.5 mM MgCl2, 0.4 uM protein, 0.1 uM dsDNA library, 30 min, room temperature, amylose pull-down; high values mean tight binding; double strand, one strand shown.
As for “GATGATTGTTCTCCCAGCTGATGAATTGCGCAAGTCGAGTAAACAAATTTTCCTAATCTTTCTGTTCAAGCGCCATCTAC”, the binding signal (RPM ratio (pull-down/input)) is 2.55. For the sequence “GATGATTGTTCTCCCAGCTGATGAATTCCACGGTTCGAGTAAACAAATTTTCCTAATCTTTCTGTTCAAGCGCCATCTAC”, the binding signal (RPM ratio (pull-down/input)) came to 0.336.

Regarding “GATGATTGTTCTCCCAGCTGATGAATTCGGTGCTTCGAGTAAACAAATTTTCCTAATCTTTCTGTTCAAGCGCCATCTAC”, the binding signal (RPM ratio (pull-down/input)) is 0.937. Consider “GATGATTGTTCTCCCAGCTGATGAATTTGGCCACTCGAGTAAACAAATTTTCCTAATCTTTCTGTTCAAGCGCCATCTAC”, for which the binding signal (RPM ratio (pull-down/input)) came out at 5. For “GATGATTGTTCTCCCAGCTGATGAATTCGTCATCTCGAGTAAACAAATTTTCCTAATCTTTCTGTTCAAGCGCCATCTAC”, the binding signal (RPM ratio (pull-down/input)) turned out to be 2.04.

For “GATGATTGTTCTCCCAGCTGATGAATTCCCCTAATCGAGTAAACAAATTTTCCTAATCTTTCTGTTCAAGCGCCATCTAC”, the binding signal (RPM ratio (pull-down/input)) is 0.224. Turning to “GATGATTGTTCTCCCAGCTGATGAATTGGCGAGGTCGAGTAAACAAATTTTCCTAATCTTTCTGTTCAAGCGCCATCTAC”, the binding signal (RPM ratio (pull-down/input)) came out at 0.318. Regarding “GATGATTGTTCTCCCAGCTGATGAATTACCCAAGTCGAGTAAACAAATTTTCCTAATCTTTCTGTTCAAGCGCCATCTAC”, the binding signal (RPM ratio (pull-down/input)) is 0.186. As for “GATGATTGTTCTCCCAGCTGATGAATTGCCGCTATCGAGTAAACAAATTTTCCTAATCTTTCTGTTCAAGCGCCATCTAC”, the binding signal (RPM ratio (pull-down/input)) is 1.25. For “GATGATTGTTCTCCCAGCTGATGAATTCGACACTTCGAGTAAACAAATTTTCCTAATCTTTCTGTTCAAGCGCCATCTAC”, the binding signal (RPM ratio (pull-down/input)) stood at 0.849.

As to “GATGATTGTTCTCCCAGCTGATGAATTATTCGTGTCGAGTAAACAAATTTTCCTAATCTTTCTGTTCAAGCGCCATCTAC”, the binding signal (RPM ratio (pull-down/input)) was found to be 0.459.

“GATGATTGTTCTCCCAGCTGATGAATTAATTCCCTCGAGTAAACAAATTTTCCTAATCTTTCTGTTCAAGCGCCATCTAC”: the binding signal (RPM ratio (pull-down/input)) came out at 0.337. For the sequence “GATGATTGTTCTCCCAGCTGATGAATTGCCATGATCGAGTAAACAAATTTTCCTAATCTTTCTGTTCAAGCGCCATCTAC”, the binding signal (RPM ratio (pull-down/input)) was determined as 0.713.

For the sequence “GATGATTGTTCTCCCAGCTGATGAATTGGCGCCGTCGAGTAAACAAATTTTCCTAATCTTTCTGTTCAAGCGCCATCTAC”, the binding signal (RPM ratio (pull-down/input)) came to 0.601.

With “GATGATTGTTCTCCCAGCTGATGAATTAGCCCATTCGAGTAAACAAATTTTCCTAATCTTTCTGTTCAAGCGCCATCTAC”, the binding signal (RPM ratio (pull-down/input)) came to 0.4. Regarding “GATGATTGTTCTCCCAGCTGATGAATTAAATTGATCGAGTAAACAAATTTTCCTAATCTTTCTGTTCAAGCGCCATCTAC”, the binding signal (RPM ratio (pull-down/input)) amounted to 0.875.

Regarding “GATGATTGTTCTCCCAGCTGATGAATTACGTAAGTCGAGTAAACAAATTTTCCTAATCTTTCTGTTCAAGCGCCATCTAC”, the binding signal (RPM ratio (pull-down/input)) is 0.424. As to “GATGATTGTTCTCCCAGCTGATGAATTTGCTAAGTCGAGTAAACAAATTTTCCTAATCTTTCTGTTCAAGCGCCATCTAC”, the binding signal (RPM ratio (pull-down/input)) turned out to be 0.407. In the case of “GATGATTGTTCTCCCAGCTGATGAATTTTGAGTATCGAGTAAACAAATTTTCCTAATCTTTCTGTTCAAGCGCCATCTAC”, the binding signal (RPM ratio (pull-down/input)) stood at 1.01. With “GATGATTGTTCTCCCAGCTGATGAATTAGTGGGCTCGAGTAAACAAATTTTCCTAATCTTTCTGTTCAAGCGCCATCTAC”, the binding signal (RPM ratio (pull-down/input)) came to 0.789.

For “GATGATTGTTCTCCCAGCTGATGAATTGCACTCATCGAGTAAACAAATTTTCCTAATCTTTCTGTTCAAGCGCCATCTAC”, the binding signal (RPM ratio (pull-down/input)) came out at 1.32.

Regarding “GATGATTGTTCTCCCAGCTGATGAATTGTCTTCTTCGAGTAAACAAATTTTCCTAATCTTTCTGTTCAAGCGCCATCTAC”, the binding signal (RPM ratio (pull-down/input)) stood at 0.478. The value for “GATGATTGTTCTCCCAGCTGATGAATTTAGCTCATCGAGTAAACAAATTTTCCTAATCTTTCTGTTCAAGCGCCATCTAC” was 0.579. Take “GATGATTGTTCTCCCAGCTGATGAATTTGCTTGTTCGAGTAAACAAATTTTCCTAATCTTTCTGTTCAAGCGCCATCTAC”: the binding signal (RPM ratio (pull-down/input)) was 6.99. “GATGATTGTTCTCCCAGCTGATGAATTTCTGACCTCGAGTAAACAAATTTTCCTAATCTTTCTGTTCAAGCGCCATCTAC”: the binding signal (RPM ratio (pull-down/input)) came out at 0.212. Take “GATGATTGTTCTCCCAGCTGATGAATTCTGGTAATCGAGTAAACAAATTTTCCTAATCTTTCTGTTCAAGCGCCATCTAC”: the binding signal (RPM ratio (pull-down/input)) was found to be 0.504. Turning to “GATGATTGTTCTCCCAGCTGATGAATTAGGTGGGTCGAGTAAACAAATTTTCCTAATCTTTCTGTTCAAGCGCCATCTAC”, the binding signal (RPM ratio (pull-down/input)) came to 0.579. In the case of “GATGATTGTTCTCCCAGCTGATGAATTGGCTGGATCGAGTAAACAAATTTTCCTAATCTTTCTGTTCAAGCGCCATCTAC” it was 0.228; in that of “GATGATTGTTCTCCCAGCTGATGAATTCGGGATATCGAGTAAACAAATTTTCCTAATCTTTCTGTTCAAGCGCCATCTAC”, 0.379. Regarding “GATGATTGTTCTCCCAGCTGATGAATTGGAATACTCGAGTAAACAAATTTTCCTAATCTTTCTGTTCAAGCGCCATCTAC”, the binding signal (RPM ratio (pull-down/input)) came to 0.453.

Regarding “GATGATTGTTCTCCCAGCTGATGAATTTATATTCTCGAGTAAACAAATTTTCCTAATCTTTCTGTTCAAGCGCCATCTAC”, the binding signal (RPM ratio (pull-down/input)) is 2.1. For “GATGATTGTTCTCCCAGCTGATGAATTGAGATCCTCGAGTAAACAAATTTTCCTAATCTTTCTGTTCAAGCGCCATCTAC”, the binding signal (RPM ratio (pull-down/input)) came to 0.341. Consider “GATGATTGTTCTCCCAGCTGATGAATTGAAACGGTCGAGTAAACAAATTTTCCTAATCTTTCTGTTCAAGCGCCATCTAC”, for which the binding signal (RPM ratio (pull-down/input)) is 0.272. In the case of “GATGATTGTTCTCCCAGCTGATGAATTACGCTTGTCGAGTAAACAAATTTTCCTAATCTTTCTGTTCAAGCGCCATCTAC” it was 3.3; in that of “GATGATTGTTCTCCCAGCTGATGAATTGCTCAGATCGAGTAAACAAATTTTCCTAATCTTTCTGTTCAAGCGCCATCTAC”, 0.345. Consider “GATGATTGTTCTCCCAGCTGATGAATTAACTCGATCGAGTAAACAAATTTTCCTAATCTTTCTGTTCAAGCGCCATCTAC”, for which the binding signal (RPM ratio (pull-down/input)) worked out at 0.241. On to “GATGATTGTTCTCCCAGCTGATGAATTATAATCCTCGAGTAAACAAATTTTCCTAATCTTTCTGTTCAAGCGCCATCTAC”, for which the binding signal (RPM ratio (pull-down/input)) turned out to be 0.409. Regarding “GATGATTGTTCTCCCAGCTGATGAATTCGGACTGTCGAGTAAACAAATTTTCCTAATCTTTCTGTTCAAGCGCCATCTAC”, the binding signal (RPM ratio (pull-down/input)) turned out to be 0.552.

For “GATGATTGTTCTCCCAGCTGATGAATTCAGACCGTCGAGTAAACAAATTTTCCTAATCTTTCTGTTCAAGCGCCATCTAC”, the binding signal (RPM ratio (pull-down/input)) is 0.328. As for “GATGATTGTTCTCCCAGCTGATGAATTCACTGAGTCGAGTAAACAAATTTTCCTAATCTTTCTGTTCAAGCGCCATCTAC”, the binding signal (RPM ratio (pull-down/input)) came out at 0.219.
